About 200 (0.47%) of roughly 43,000 compounds were called active. Not shown: some 12% with an inconclusive outcome. Calls come from the whole dose curve; as a rule, active = well fitted cell-killing curve with a large enough effect; inconclusive = small, poorly fitted or top-dose-only effect, or effect the other way; inactive = flat fitted curve, though single readings scatter. The list shows a part of the results.
Assay: Cell viability qHTS assay in S16 Pmp22-F2sN cells; note: nearly all actives have a fitted effect of over 65% in size
Conditions: S16 Pmp22-F2sN Schwann cells viability, CellTiter-Glo, 24 h; series mostly up to 57.5 µM; activity change, negative = cytotoxicity: at the top concentration
Outline: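 S16 Pmp22-F2sN Schwann cells (500-1,000/well) in phenol-red-free DMEM with 10% FBS received 23 nL compound by pin tool for 24 h at 37 °C. Viability was then read as CellTiter-Glo luminescence after 15 min at room temperature.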
% is set by controls: 0 for no effect and ±100 for the full control effect.

Row | Structure (SMILES) | activity change, negative = cytotoxicity
1 | N#Cc1ccccc1S(=O)(=O)N1CCCC(c2nc3c(nnn3Cc3cccc(Cl)c3)c(=O)[nH]2)C1 (stereo not given) | inactive: -13.6%
2 | CN(C)c1ccc(C(CNC(=O)c2ccccc2F)N2CCc3ccccc32)cc1 (stereo not given) | inactive: 0.759%
3 | Cc1csc2nc(CCNS(=O)(=O)c3ccccc3)cn12 | inactive: 0.56%
4 | COC(=O)c1ccc([C@H]2Nc3ccc(S(=O)(=O)Nc4ccc(C)cc4)cc3[C@H]3C=CC[C@H]32)cc1 | inactive: -14.7%
5 | CCOC(=O)c1cc(-c2ccc(F)cc2)n(CC(=O)NCc2ccc(OC)cc2)c1C | inactive: -4.28%
6 | Cc1ccc(CN(Cc2ccco2)C(=O)COc2ccc(Cl)cc2Cl)cc1 | inactive: -21.4%
7 | COc1ccc(-c2nnc(SCC(=O)NCc3ccccc3)nc2-c2ccc(OC)c(OC)c2)cc1OC | inactive: 0.982%
8 | CCOc1ccccc1CNC(=O)CN(c1ccc(C)cc1)S(=O)(=O)N(C)C | inactive: -7.87%
9 | CC(C)(C)c1ccc(S(=O)(=O)c2cnc(SCC(=O)Nc3ccc(F)c(Cl)c3)[nH]c2=O)cc1 | inactive: 6.17%
10 | COc1cccc(-c2nc(CS(=O)(=O)CC(=O)Nc3cc(F)ccc3F)c(C)o2)c1 | inactive: 8.14%
11 | Cc1ccc(NC(=O)CSc2nc3ccccc3c3nc(CCn4cncc4C)nn23)c(C)c1 | inactive: -2.33%
12 | Cc1ccc(OCC(=O)N(Cc2ccco2)Cc2ccco2)cc1 | inactive: 0.705%
13 | CCN(CCCNC(=O)CSc1cc(=O)n(C)c2cc(Cl)ccc12)c1cccc(C)c1 | inactive: -28%
14 | Cc1c2cnn(-c3ccccc3)c(=O)c2c(C)n1CC(=O)N1CCN(c2ccc(F)cc2)CC1 | inactive: -29.2%
15 | COc1cc(-c2noc(-c3ccc(N4CCOCC4)c([N+](=O)[O-])c3)n2)cc(OC)c1OC | inactive: 5.15%
16 | COc1ccc2nc3sc(C(=O)N4CCN(c5ccccc5)CC4)cc3cc2c1 | inactive: -3.6%
17 | COc1ccc(CCNC(=O)CCn2c(=O)c3ccccc3n(Cc3c(C)cc(C)cc3C)c2=O)cc1OC | inactive: 13%
18 | CCS(=O)(=O)c1nc2ccccc2n1CC(=O)Nc1ccccc1C(=O)OC | inactive: 6.8%
19 | Oc1c(C(c2ccc(Br)cc2)N2CCOCC2)sc2nc(-c3ccco3)nn12 (stereo not given) | inactive: 15.1%
20 | CCc1ccc(C(=O)c2c(N)c(-c3nc(-c4ccc5c(c4)OCO5)cs3)c3ccccn23)cc1 | inactive: 11.3%
21 | O=C(Cn1c(=O)n(-c2ccc(Cl)cc2)c(=O)c2sc3ccccc3c21)NC1CCCCC1 | inactive: 14.1%
22 | COc1ccc(-c2cc(C(F)(F)F)nc(NCc3ccccc3)n2)cc1 | inactive: 17.7%
23 | Cc1ccccc1NC(=O)Cn1c(=O)n(-c2ccc(CC(=O)NCC3CCCO3)cc2)c(=O)c2ccccc21 (stereo not given) | inactive: 14.6%
24 | COc1cc(OC)c(NC(=O)CCn2cccn2)cc1Cl | inactive: 1.52%
25 | CN(Cc1ccccc1)C(C(=O)NC1CCCCC1)c1ccc(Cl)cc1 (stereo not given) | inactive: -2.73%
